The assay has as its system RPE1. Put plainly: nucleolar normality score relative to DMSO (fraction of DMSO control); RPE1 is a non-cancer human cell line; higher = more normal nucleoli (less nucleolar stress). Particulars: 24 h.

Molecules are shown by their SMILES. Structures can show the parent of a compound that is named as a salt. This is one part of the list.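 How the source made its calls: active = more than 2 SD below the DMSO mean: under 0.85 at 10 µM or 0.885 at 1 µM; inactive = the rest.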 Repeats are few or missing, and single values can be far off.
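Further: fixed cells immunolabelled for nucleolin and UBF, 40 image fields per well in 384-well plates, per-cell score = nucleolin nucleolar/nucleoplasm intensity ratio divided by the matching UBF ratio.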

Regarding `COc1ccc(-c2ccc3c(N4CCOC[C@@H]4C)nc(N4CCOC[C@@H]4C)nc3n2)cc1CO`, the nucleolar normality score (1 µM) is inactive: 1.05 and the nucleolar normality score (10 µM) is inactive: 1.04.

Turning to `COC(=O)c1ccc2c(c1)nc(NC(=O)c1ccccc1)n2CCCc1ccccc1`, the nucleolar normality score (1 µM) is inactive: 0.965 and the nucleolar normality score (10 µM) was inactive: 1.

Regarding `C[C@@]1(C(=O)Nc2ccc(F)nc2)CCCN1c1nc(Nc2cc(C3CC3)n[nH]2)c2cccn2n1`, the nucleolar normality score (1 µM) is inactive: 0.992 and the nucleolar normality score (10 µM) was inactive: 1.03.

Take `N#Cc1ccc(C(c2ccc(C#N)cc2)n2cncn2)cc1` [Letrozole]: the nucleolar normality score was inactive: 1.03 (1 µM) and inactive: 1.06 (10 µM).

For `O=C(Nc1cccc(C(F)(F)F)c1)c1cccc2cc(Oc3cc(CO)ncn3)ccc12`, the nucleolar normality score reads like this: (1 µM) inactive: 1.01; (10 µM) inactive: 1.07.

For the compound `CN(CC(=O)N(Cc1ccc(C2CCCCC2)cc1)c1ccc(C(=O)O)c(O)c1)S(=O)(=O)c1c(F)c(F)c(F)c(F)c1F`, the nucleolar normality score reads like this: (1 µM) inactive: 1.02; (10 µM) inactive: 1.02.

As for `CC(=O)Nc1ccc(C(=O)Nc2ccccc2N)cc1` [Tacedinaline (CI994)], the nucleolar normality score runs as follows: (1 µM) inactive: 1.02; (10 µM) inactive: 0.878.

Turning to `COc1cc2c(Nc3ccc(NC(=O)c4ccccc4)cc3)ncnc2cc1OCCCN1CCOCC1`, the nucleolar normality score was inactive: 0.995 (1 µM) and inactive: 1.01 (10 µM).

`O=c1[nH]nc2c3c(cccc13)N=C(CN1Cc3ccccc3C1)N2`: the nucleolar normality score (1 µM) is inactive: 1.01 and the nucleolar normality score (10 µM) is inactive: 1.05.

Turning to `O=C(O)[C@]1(Cc2cccc(Nc3nccs3)n2)CC[C@@H](Oc2cccc(Cl)c2F)CC1`, the nucleolar normality score reads like this: (1 µM) inactive: 1; (10 µM) inactive: 1.05.

Regarding `C#Cc1cccc(Nc2ncnc3cc(OC)c(OCCCCCCC(=O)NO)cc23)c1`, the nucleolar normality score (1 µM) was inactive: 1.06 and the nucleolar normality score (10 µM) is active: 0.514.

For `COc1cccc2c1c(O)c(C(=O)N(C)c1ccc(C(F)(F)F)cc1)c(=O)n2C` [Tasquinimod], the nucleolar normality score (1 µM) is inactive: 0.985 and the nucleolar normality score (10 µM) is inactive: 0.985.

Take `N=C(N)NC(=N)NCCc1ccccc1` [Phenformin HCl]: the nucleolar normality score is, setting by setting: (1 µM) inactive: 1.02; (10 µM) inactive: 0.898.

`O=c1[nH]c(C2CCCN2)nc2c1oc1ccc(Cl)cc12` (configuration not stated): the nucleolar normality score (1 µM) is inactive: 1.06 and the nucleolar normality score (10 µM) is inactive: 1.11.

`C[C@@H](Oc1ccc2[nH]nc(/C=C/c3cnn(CCO)c3)c2c1)c1c(Cl)cncc1Cl`: the nucleolar normality score reads like this: (1 µM) inactive: 0.957; (10 µM) inactive: 0.941.

On to `CN(C)C/C=C/C(=O)Nc1ccc(C(=O)Nc2cccc(Nc3ncc(Cl)c(-c4c[nH]c5ccccc45)n3)c2)cc1`, for which the nucleolar normality score by setting is: (1 µM) active: 0.671; (10 µM) active: 0.2.

On to `O=C1NC(=O)C(c2cnc3ccccn23)=C1c1cn2c3c(cc(F)cc13)CN(C(=O)N1CCCCC1)CC2`, for which the nucleolar normality score (1 µM) is active: 0.784 and the nucleolar normality score (10 µM) is active: 0.702.

For `COc1cc2ncnc(Sc3nnc(C)s3)c2cc1OC`, the nucleolar normality score was inactive: 0.972 (1 µM) and inactive: 1.04 (10 µM).

Consider `N=C1CCCN1Cc1[nH]c(=O)[nH]c(=O)c1Cl` [Tipiracil hydrochloride], for which the nucleolar normality score (1 µM) is inactive: 1.01 and the nucleolar normality score (10 µM) is inactive: 0.932.

`C[C@@H]1Cc2c([nH]c3ccccc23)[C@@H](c2c(F)cc(/C=C/C(=O)O)cc2F)N1CC(C)(C)F`: the nucleolar normality score was inactive: 0.981 (1 µM) and inactive: 1.01 (10 µM).

With `CC(=O)Nc1cccc(-n2c(=O)n(C3CC3)c(=O)c3c(Nc4ccc(I)cc4F)n(C)c(=O)c(C)c32)c1`, the nucleolar normality score is, setting by setting: (1 µM) inactive: 0.982; (10 µM) active: 0.849.

Turning to `CC(C)Oc1ccc(-c2c[nH]cc2CN(C)CCN)cc1`, the nucleolar normality score by setting is: (1 µM) inactive: 1.08; (10 µM) inactive: 1.04.

`C[C@@H](C(=O)Nc1ccc(Cl)cc1)C1CCC(c2ccnc3ccc(F)cc23)CC1` (some centres not stated): the nucleolar normality score is inactive: 1.06 (1 µM) and inactive: 1.06 (10 µM).

As to `CC(C)(C)c1cnc(CSc2cnc(NC(=O)C3CCNCC3)s2)o1`, the nucleolar normality score is active: 0.242 (1 µM) and active: 0.209 (10 µM).

Turning to `COc1cc(Br)c(Nc2nc(-c3c(C)nc4ncccn34)cs2)c(Br)c1`, the nucleolar normality score is, setting by setting: (1 µM) inactive: 1.02; (10 µM) inactive: 1.06.

In the case of `CC(=Cc1ccc(C(=O)O)cc1)c1ccc2c(c1)C(C)(C)CCC2(C)C` [TTNPB (Arotinoid Acid)], the nucleolar normality score is, setting by setting: (1 µM) inactive: 1.07; (10 µM) inactive: 1.1.

For `Cc1ccc(C(=O)c2ccc(CC(=O)O)n2C)cc1` [Tolmetin], the nucleolar normality score (1 µM) was inactive: 1.01 and the nucleolar normality score (10 µM) was inactive: 0.94.

Turning to `COC(=O)Nc1nc2cc(C(=O)c3cccs3)ccc2[nH]1` [Nocodazole], the nucleolar normality score is, setting by setting: (1 µM) inactive: 0.928; (10 µM) inactive: 0.86.

In the case of `N#CN=C(NCCCCCCOc1ccc(Cl)cc1)Nc1ccncc1`, the nucleolar normality score is, setting by setting: (1 µM) inactive: 1.03; (10 µM) inactive: 1.06.

In the case of `CCOC(=O)c1ccc(N2NC(=O)C(=Cc3ccc([N+](=O)[O-])o3)C2=O)cc1`, the nucleolar normality score by setting is: (1 µM) inactive: 1.02; (10 µM) inactive: 1.06.

As for `CCNC(=O)c1noc(-c2cc(Cl)c(O)cc2O)c1-c1ccc(OC)cc1`, the nucleolar normality score reads like this: (1 µM) inactive: 0.898; (10 µM) active: 0.468.

For `CCC1=C[C@@H]2CN(C1)Cc1c([nH]c3ccccc13)[C@@](C(=O)OC)(c1cc3c(cc1OC)N(C)[C@H]1[C@@](O)(C(=O)OC)[C@H](OC(C)=O)[C@]4(CC)C=CCN5CC[C@]31[C@@H]54)C2` [Vinorelbine Tartrate], the nucleolar normality score (1 µM) is inactive: 0.994 and the nucleolar normality score (10 µM) is inactive: 0.912.

For the compound `C=CC(=O)Nc1cccc(Nc2nc(Nc3ccc(NC4CN(CCF)C4)cc3OC)ncc2C(F)(F)F)c1`, the nucleolar normality score (1 µM) is inactive: 0.966 and the nucleolar normality score (10 µM) is inactive: 1.01.

As to `c1ccc2c(Oc3nc(Nc4ccc(N5CCOCC5)cc4)c4ncn(C5CCCCC5)c4n3)cccc2c1` [Purmorphamine], the nucleolar normality score is inactive: 0.98 (1 µM) and inactive: 1.02 (10 µM).

For the compound `C[C@]12C=CC(=O)C=C1CC[C@@H]1[C@@H]2C(=O)C[C@@]2(C)[C@H]1CC[C@]2(O)C(=O)CO` [Prednisone], the nucleolar normality score is, setting by setting: (1 µM) inactive: 0.916; (10 µM) inactive: 0.902.

With `COc1cc2nccc(Oc3ccc(NC(=O)Nc4ccc(F)cc4F)c(F)c3)c2cc1OC`, the nucleolar normality score is inactive: 1.03 (1 µM) and inactive: 1.07 (10 µM).

As to `CCOC(=O)NCCCC(=O)NCCc1ccccc1`, the nucleolar normality score is, setting by setting: (1 µM) inactive: 0.971; (10 µM) inactive: 0.961.

With `CCC[C@H](NC(=O)/C(C#N)=C/c1cccc(Br)n1)c1ccccc1` [Degrasyn (WP1130)], the nucleolar normality score reads like this: (1 µM) inactive: 1.03; (10 µM) inactive: 1.07.

With `COc1cc2c(cc1NS(=O)(=O)c1ccc(Br)cc1C)n(C)c(=O)n2C`, the nucleolar normality score reads like this: (1 µM) inactive: 0.919; (10 µM) inactive: 1.02.

As for `CCc1c2c(nc3ccc(OC(=O)N4CCC(N5CCCCC5)CC4)cc13)-c1cc3c(c(=O)n1C2)COC(=O)[C@]3(O)CC` [Irinotecan HCl Trihydrate], the nucleolar normality score reads like this: (1 µM) inactive: 1.04; (10 µM) inactive: 1.08.

With `O=C(NC(NC(=S)Nc1ccc(F)c([N+](=O)[O-])c1)C(Cl)(Cl)Cl)C(c1ccccc1)c1ccccc1` (configuration not stated), the nucleolar normality score by setting is: (1 µM) inactive: 0.935; (10 µM) inactive: 0.996.

Turning to `Oc1cc(CNC(=S)/C=C/c2cc(O)c(O)c(Br)c2)cc(O)c1O`, the nucleolar normality score reads like this: (1 µM) inactive: 0.969; (10 µM) inactive: 1.02.

For the compound `Cn1cc(C2=C(c3ccc(Cl)cc3Cl)C(=O)NC2=O)c2ccccc21`, the nucleolar normality score is, setting by setting: (1 µM) inactive: 0.989; (10 µM) inactive: 0.98.

Take `CCOc1cc2ncc(C#N)c(Nc3ccc(OCc4ccccn4)c(Cl)c3)c2cc1NC(=O)/C=C/CN(C)C` [Neratinib (HKI-272)]: the nucleolar normality score (1 µM) was inactive: 1.04 and the nucleolar normality score (10 µM) is active: 0.778.

With `Cc1cc(NC(=O)c2cccc(NC(=O)/C=C/CN(C)C)c2)ccc1Nc1nccc(-c2cccnc2)n1`, the nucleolar normality score was inactive: 1.05 (1 µM) and inactive: 1.06 (10 µM).

As for `FC(F)(F)c1ccc(/C=C/c2nc(COc3ccc(CCCCn4ccnn4)cc3)co2)cc1` [Mubritinib (TAK 165)], the nucleolar normality score is, setting by setting: (1 µM) inactive: 1.01; (10 µM) inactive: 1.08.

For `CC(=O)OCC(=O)[C@@]1(O)CC[C@H]2[C@@H]3CCC4=CC(=O)CC[C@]4(C)[C@H]3C(=O)C[C@@]21C` [Cortisone acetate], the nucleolar normality score runs as follows: (1 µM) inactive: 1.04; (10 µM) inactive: 0.896.

Turning to `CC(C)(C)c1cc(C(=O)C(C#N)=NNc2cccc(Cl)c2)no1`, the nucleolar normality score runs as follows: (1 µM) inactive: 0.954; (10 µM) inactive: 0.962.

With `CCc1nc(C(N)=O)c(Nc2ccc(N3CCC(N4CCN(C)CC4)CC3)c(OC)c2)nc1NC1CCOCC1` [Gilteritinib (ASP2215)], the nucleolar normality score runs as follows: (1 µM) active: 0.83; (10 µM) active: 0.774.

For the compound `CNS(=O)(=O)Nc1nccc(Cc2c(C)c3ccc(Oc4ncccn4)cc3oc2=O)c1F`, the nucleolar normality score (1 µM) was inactive: 0.918 and the nucleolar normality score (10 µM) was inactive: 1.08.

With `CN[C@@H](C)C(=O)N[C@H](C(=O)N1CCC[C@H]1C(=O)Nc1snnc1-c1ccccc1)C1CCCCC1`, the nucleolar normality score by setting is: (1 µM) inactive: 1.01; (10 µM) inactive: 1.07.

In the case of `CN1CCN(c2cccc(Nc3nc4c(-c5ccc(S(C)(=O)=O)cc5)cccn4n3)c2)CC1`, the nucleolar normality score was inactive: 1 (1 µM) and inactive: 1.01 (10 µM).

Take `Nc1nccc(Oc2ccc3c(C(=O)Nc4cccc(C(F)(F)F)c4)cccc3c2)n1`: the nucleolar normality score is, setting by setting: (1 µM) inactive: 1.01; (10 µM) inactive: 1.05.

In the case of `O=C(O)CCN1C(=O)/C(=C/c2ccc(-c3ccc([N+](=O)[O-])cc3)o2)SC1=S`, the nucleolar normality score reads like this: (1 µM) inactive: 1.01; (10 µM) inactive: 1.

Regarding `Cc1cc(N2C[C@@H](C)N[C@@H](C)C2)ncc1-c1ccc(-c2nc3c(ccn3C)c(=O)[nH]2)cc1`, the nucleolar normality score (1 µM) is inactive: 1.05 and the nucleolar normality score (10 µM) is inactive: 1.07.

In the case of `CNC(=O)c1nn(C)c2c1C(C)(C)Cc1cnc(Nc3ccc(N4CCN(C)CC4)cc3)nc1-2`, the nucleolar normality score (1 µM) is active: 0.737 and the nucleolar normality score (10 µM) was active: 0.649.

Take `COc1ccc(C=Cc2cc(OC)c(OC)c(OC)c2)cc1OP(=O)(O)O` [Fosbretabulin (Combretastatin A4 Phosphate (CA4P)) Disodium]: the nucleolar normality score by setting is: (1 µM) inactive: 1.01; (10 µM) inactive: 1.04.

For `CCN1C(=O)CNc2ncc(-c3ccc(-c4nc[nH]n4)nc3C)nc21`, the nucleolar normality score reads like this: (1 µM) inactive: 0.917; (10 µM) inactive: 0.9.

`C[C@@H]1COCCN1c1cc(C2([S@](C)(=N)=O)CC2)nc(-c2cc[nH]c3nccc2-3)n1`: the nucleolar normality score is inactive: 0.922 (1 µM) and inactive: 1.04 (10 µM).

Turning to `C[n+]1cccc(C(=O)[O-])c1` [Trigonelline Hydrochloride], the nucleolar normality score (1 µM) is inactive: 1.05 and the nucleolar normality score (10 µM) is inactive: 0.916.

Turning to `O=c1[nH]c(=O)n([C@H]2C[C@H](O)[C@@H](CO)O2)cc1F` [Floxuridine], the nucleolar normality score reads like this: (1 µM) inactive: 0.97; (10 µM) inactive: 0.979.

Values taken from the supplement of paper PMC10723795.
